# Measured values taken from the supplement of paper PMC8728848.
# Some of the results follow.
# B1: mCC1-Hexahis-Precomplexed (Mus musculus), P31809 (protein)
# chain: MELASAHLHKGQVPWGGLLLTASLLASWSPATTAEVTIEAVPPQVAEDNNVLLLVHNLPLALGAFAWYKGNTTAIDKEIARFVPNSNMNFTGQAYSGREIIYSNGSLLFQMITMKDMGVYTLDMTDENYRRTQATVRFHVHPILLKPNITSNNSNPVEGDDSVSLTCDSYTDPDNINYLWSRNGESLSEGDRLKLSEGNRTLTLLNVTRNDTGPYVCETRNPVSVNRSDPFSLNIIYGPDTPIISPSDIYLHPGSNLNLSCHAASNPPAQYFWLINEKPHASSQELFIPNITTNNSGTYTCFVNNSVTGLSRTTVKNITVLEPVTQPFLQVTNTTVKELDSVTLTCLSNDIGANIQWLFNSQSLQLTERMTLSQNNSILRIDPIKREDAGEYQCEISNPVSVRRSNSIKLDIIFDPTQGGLSDGHHHHHH
# Key:
# Assay in all cases: glycan array binding signal (z-score within array); higher = stronger binding
# Conditions in all cases: glycan notation: IUPAC condensed, linker removed
# [1] = biological target: Gal(b1-4)GlcNAc(b1-2)Man(a1-3)[Gal(b1-4)GlcNAc(b1-2)Man(a1-6)]Man(b1-4)GlcNAc(b1-4)[Fuc(a1-6)]GlcNAc
# Outline: (§1)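 The Consortium for Functional Glycomics database supplied 3228 glycan arrays, of which those lacking an available protein sequence were dropped. The binding signal, a within-array Z-score, was averaged across arrays of the same protein sequence and across linkers. Negative scores can be read as non-binding.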
# [2] = biological target: Gal(b1-4)GlcNAc(b1-2)Man(a1-3)[Gal(b1-4)GlcNAc(b1-2)Man(a1-6)][Gal(b1-4)GlcNAc(b1-4)]Man(b1-4)GlcNAc(b1-4)[Fuc(a1-6)]GlcNAc
# Outline: as §1
# [3] = biological target: Gal(b1-4)GlcNAc(b1-2)Man(a1-3)[Gal(b1-4)GlcNAc(b1-2)Man(a1-6)][GlcNAc(b1-4)]Man(b1-4)GlcNAc(b1-4)[Fuc(a1-6)]GlcNAc
# Outline: as §1
# [4] = biological target: Gal(b1-4)GlcNAc(b1-2)Man(a1-3)[GlcNAc(b1-2)Man(a1-6)]Man(b1-4)GlcNAc(b1-4)GlcNAc
# Outline: as §1
# [5] = biological target: Gal(b1-4)GlcNAc(b1-2)Man(a1-3)[GlcNAc(b1-4)][Gal(b1-4)GlcNAc(b1-2)Man(a1-6)]Man(b1-4)GlcNAc(b1-4)GlcNAc
# Outline: as §1
# [6] = biological target: Gal(b1-4)GlcNAc(b1-2)Man(a1-3)[Man(a1-6)]Man(b1-4)GlcNAc(b1-4)GlcNAc
# Outline: as §1
# [7] = biological target: Gal(b1-4)GlcNAc(b1-2)Man(a1-6)Man(b1-4)GlcNAc(b1-4)GlcNAc
# Outline: as §1
# [8] = biological target: Gal(b1-4)GlcNAc(b1-2)Man(a1-6)[GlcNAc(b1-2)Man(a1-3)]Man(b1-4)GlcNAc(b1-4)GlcNAc
# Outline: as §1
# [9] = biological target: Gal(b1-4)GlcNAc(b1-2)Man(a1-6)[Man(a1-3)]Man(b1-4)GlcNAc(b1-4)GlcNAc
# Outline: as §1
# [10] = biological target: Gal(b1-4)GlcNAc(b1-2)[Gal(b1-4)GlcNAc(b1-4)]Man(a1-3)[Gal(b1-4)GlcNAc(b1-2)Man(a1-6)]Man(b1-4)GlcNAc(b1-4)GlcNAc
# Outline: as §1
# [11] = biological target: Gal(b1-4)GlcNAc(b1-2)[Gal(b1-4)GlcNAc(b1-4)]Man(a1-3)[Gal(b1-4)GlcNAc(b1-2)[Gal(b1-4)GlcNAc(b1-6)]Man(a1-6)]Man(b1-4)GlcNAc(b1-4)GlcNAc
# Outline: as §1
# [12] = biological target: Gal(b1-4)GlcNAc(b1-2)[Gal(b1-4)GlcNAc(b1-4)]Man(a1-3)[GlcNAc(b1-4)][Gal(b1-4)GlcNAc(b1-2)Man(a1-6)]Man(b1-4)GlcNAc(b1-4)GlcNAc
# Outline: as §1
# [13] = biological target: Gal(b1-4)GlcNAc(b1-2)[Gal(b1-4)GlcNAc(b1-4)]Man(a1-3)[GlcNAc(b1-4)][Gal(b1-4)GlcNAc(b1-2)[Gal(b1-4)GlcNAc(b1-6)]Man(a1-6)]Man(b1-4)GlcNAc(b1-4)GlcNAc
# Outline: as §1
# [14] = biological target: Gal(b1-4)GlcNAc(b1-2)[Gal(b1-4)GlcNAc(b1-6)]Man(a1-6)[Gal(b1-4)GlcNAc(b1-2)Man(a1-3)]Man(b1-4)GlcNAc(b1-4)GlcNAc
# Outline: as §1
# [15] = biological target: Gal(b1-4)GlcNAc(b1-2)[Gal(b1-4)GlcNAc(b1-6)]Man(a1-6)[Gal(b1-4)GlcNAc(b1-2)Man(a1-3)]Man(b1-4)GlcNAc(b1-4)[Fuc(a1-6)]GlcNAc
# Outline: as §1
# [16] = biological target: Gal(b1-4)GlcNAc(b1-2)[Gal(b1-4)GlcNAc(b1-6)]Man(a1-6)[GlcNAc(b1-4)][Gal(b1-4)GlcNAc(b1-2)Man(a1-3)]Man(b1-4)GlcNAc(b1-4)GlcNAc
# Outline: as §1
# [17] = biological target: Gal(b1-4)GlcNAc(b1-2)[Gal(b1-4)GlcNAc(b1-6)]Man(a1-6)[GlcNAc(b1-4)][Gal(b1-4)GlcNAc(b1-2)[Gal(b1-4)GlcNAc(b1-4)]Man(a1-3)]Man(b1-4)GlcNAc(b1-4)[Fuc(a1-6)]GlcNAc
# Outline: as §1
# [18] = biological target: Gal(b1-4)GlcNAc(b1-3)Gal(b1-3)GalNAc
# Outline: as §1
# [19] = biological target: Gal(b1-4)GlcNAc(b1-3)Gal(b1-3)GlcNAc
# Outline: as §1
binder,measurement,setting,value
B1,glycan array binding signal (z-score),[1],0.133
same,glycan array binding signal (z-score),[2],-0.278
same,glycan array binding signal (z-score),[3],-0.167
same,glycan array binding signal (z-score),[4],-0.247
same,glycan array binding signal (z-score),[5],-0.127
same,glycan array binding signal (z-score),[6],-0.222
same,glycan array binding signal (z-score),[7],-0.203
same,glycan array binding signal (z-score),[8],-0.289
same,glycan array binding signal (z-score),[9],-0.048
same,glycan array binding signal (z-score),[10],-0.172
same,glycan array binding signal (z-score),[11],-0.217
same,glycan array binding signal (z-score),[12],-0.255
same,glycan array binding signal (z-score),[13],-0.239
same,glycan array binding signal (z-score),[14],-0.015
same,glycan array binding signal (z-score),[15],-0.215
same,glycan array binding signal (z-score),[16],-0.152
same,glycan array binding signal (z-score),[17],-0.211
same,glycan array binding signal (z-score),[18],-0.158
same,glycan array binding signal (z-score),[19],-0.196
